Measurements: the supplement of paper PMC6206098
± gives the uncertainty stated by the source. The sequences are guide strands of siRNAs; only the seed at positions 2 to 7 varies.

What was measured:
[1] = test system: M565; assay: cell viability relative to lipid-only control; higher = less toxic; conditions: concentration: 10 nM; 96 h; Mus musculus
[2] = test system: HeyA8; assay: as above; conditions: concentration: 10 nM; 96 h; Homo sapiens
[3] = test system: H460; assay: as above; conditions: concentration: 10 nM; 96 h; Homo sapiens
[4] = test system: 3LL; assay: cell viability relative to siNT1 control; HeyA8 human ovarian and H460 human lung cancer; M565 mouse liver and 3LL mouse lung cancer; siNT1 is a non-toxic control siRNA; higher = less toxic; conditions: concentration: 10 nM; 96 h; Mus musculus;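 further: Luminescence-based viability of cells reverse transfected in 384-well plates with lipid-complexed siRNAs built on a non-toxic 19mer backbone whose passenger strand carries 2′-O-methyl groups at positions 1 and 2, triplicates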
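Wherever cell viability relative to lipid-only control is given: reverse lipid transfection in 384-well plates, in triplicate, of duplexes on a non-toxic 19mer backbone with passenger strand 2′-O-methylated at positions 1 and 2, luminescence viability read-out.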

| Sequence | cell viability [1] | cell viability [2] | cell viability [3] | cell viability [4] |
| --- | --- | --- | --- | --- |
| UUAUCAAACAUGUAAACCAAA | 76.4 ± 6.4% | 94.6 ± 3.8% | 72.8 ± 9.3% | 65.9 ± 9.2% |
| UUAUCACACAUGUAAACCAAA | 108 ± 16% | 79.5 ± 4.9% | 58.8 ± 4.1% | 61.8 ± 10% |
| UUAUCAGACAUGUAAACCAAA | 66.4 ± 14% | 73 ± 7.7% | 70 ± 1.5% | 82.9 ± 9.6% |
| UUAUCAUACAUGUAAACCAAA | 68.5 ± 6.3% | 82.7 ± 9.3% | 74.9 ± 10% | 45.7 ± 5.8% |
| UUAUCCAACAUGUAAACCAAA | 45 ± 4.7% | 75.2 ± 6% | 66.9 ± 4.3% | 57.7 ± 7.1% |
| UUAUCCCACAUGUAAACCAAA | 42.9 ± 6% | 6.66 ± 1.4% | 19.3 ± 0.95% | 2.65 ± 0.67% |
| UUAUCCGACAUGUAAACCAAA | 70.3 ± 14% | 79.1 ± 5.6% | 79.3 ± 5.9% | 65.8 ± 3.5% |
| UUAUCCUACAUGUAAACCAAA | 37.5 ± 4.8% | 21.7 ± 2.8% | 55 ± 0.8% | 26.1 ± 6.7% |
| UUAUCGAACAUGUAAACCAAA | 73.9 ± 5.2% | 96 ± 6.2% | 79.5 ± 9.9% | 77.9 ± 23% |
| UUAUCGCACAUGUAAACCAAA | 34.4 ± 17% | 57.6 ± 8% | 38.5 ± 6% | 9.82 ± 3.7% |
| UUAUCGGACAUGUAAACCAAA | 87.5 ± 17% | 93.2 ± 3.6% | 89.6 ± 14% | 48.3 ± 7% |
| UUAUCGUACAUGUAAACCAAA | 59.6 ± 3.4% | 89.5 ± 5.4% | 68.9 ± 4.2% | 38.8 ± 2% |
| UUAUCUAACAUGUAAACCAAA | 82.7 ± 15% | 98.2 ± 4.3% | 72.9 ± 9.3% | 95.5 ± 5.2% |
| UUAUCUCACAUGUAAACCAAA | 56.9 ± 13% | 77.6 ± 4.8% | 82.7 ± 6.6% | 33.1 ± 3.5% |
| UUAUCUGACAUGUAAACCAAA | 91.8 ± 12% | 95.8 ± 6.9% | 84.5 ± 3.6% | 88.5 ± 10% |
| UUAUCUUACAUGUAAACCAAA | 70.5 ± 9.7% | 78.5 ± 9.4% | 70.1 ± 6.8% | 79.5 ± 10% |
| UUAUGAAACAUGUAAACCAAA | 72.2 ± 12% | 91.1 ± 4.6% | 78.7 ± 7.7% | 64.5 ± 9.9% |
| UUAUGACACAUGUAAACCAAA | 69.5 ± 10% | 43.4 ± 5.4% | 37.1 ± 1.6% | 35 ± 3.8% |
| UUAUGAGACAUGUAAACCAAA | 86.1 ± 26% | 33 ± 4.7% | 37 ± 6.6% | 58 ± 0.87% |
| UUAUGAUACAUGUAAACCAAA | 55.6 ± 3.9% | 58.3 ± 6.7% | 60.7 ± 1.5% | 72.5 ± 4% |

| Sequence | cell viability [1] | cell viability [2] | cell viability [3] | cell viability [4] |
| --- | --- | --- | --- | --- |
| UUAUGCAACAUGUAAACCAAA | 63.2 ± 6.7% | 53.2 ± 1.7% | 42.4 ± 6.5% | 47.1 ± 9.4% |
| UUAUGCCACAUGUAAACCAAA | 10.4 ± 2.9% | 9.05 ± 0.98% | 13.7 ± 1.2% | 12 ± 4.1% |
| UUAUGCGACAUGUAAACCAAA | 67.9 ± 15% | 65.9 ± 3.4% | 58.2 ± 5.5% | 64.1 ± 6% |
| UUAUGCUACAUGUAAACCAAA | 13.3 ± 1.4% | 12.7 ± 0.36% | 19.5 ± 2% | 19.2 ± 3.6% |
| UUAUGGAACAUGUAAACCAAA | 25.9 ± 5.7% | 44.7 ± 3.8% | 53.2 ± 6.7% | 72.9 ± 3.7% |
| UUAUGGCACAUGUAAACCAAA | 9.2 ± 0.82% | 63.4 ± 2.4% | 57.7 ± 1.8% | 18.7 ± 1.9% |
| UUAUGGGACAUGUAAACCAAA | 49.2 ± 7.1% | 19.4 ± 2.4% | 22.9 ± 2.6% | 51.3 ± 9.9% |
| UUAUGGUACAUGUAAACCAAA | 16.8 ± 2.9% | 16.2 ± 1.4% | 36.8 ± 3.2% | 30.4 ± 2.1% |
| UUAUGUAACAUGUAAACCAAA | 65.7 ± 3.1% | 99.6 ± 7.5% | 76.5 ± 5.4% | 47.9 ± 7.7% |
| UUAUGUCACAUGUAAACCAAA | 55 ± 9.2% | 47.9 ± 6.4% | 32.1 ± 4% | 8.87 ± 1.3% |
| UUAUGUGACAUGUAAACCAAA | 65.2 ± 24% | 41.3 ± 9.1% | 38.1 ± 2.8% | 61.4 ± 9.4% |
| UUAUGUUACAUGUAAACCAAA | 33.9 ± 4.3% | 51.4 ± 4% | 55 ± 9.9% | 29 ± 6% |
| UUAUUAAACAUGUAAACCAAA | 110 ± 18% | 92.8 ± 5.7% | 69 ± 9.8% | 72.6 ± 10% |
| UUAUUACACAUGUAAACCAAA | 62.4 ± 5.8% | 66.6 ± 1.1% | 56 ± 7.4% | 25.4 ± 4.5% |
| UUAUUAGACAUGUAAACCAAA | 96.7 ± 6.2% | 76.1 ± 4.1% | 64 ± 4.8% | 40.4 ± 8.1% |
| UUAUUAUACAUGUAAACCAAA | 97.6 ± 12% | 86.7 ± 3.4% | 68.2 ± 9.4% | 41.6 ± 1.7% |
| UUAUUCAACAUGUAAACCAAA | 44.2 ± 11% | 93.5 ± 5% | 69 ± 12% | 39.7 ± 10% |
| UUAUUCCACAUGUAAACCAAA | 33.1 ± 3.4% | 43.4 ± 1.8% | 26 ± 2.1% | 11.7 ± 2.7% |
| UUAUUCGACAUGUAAACCAAA | 40.6 ± 4% | 99.5 ± 2.6% | 79.5 ± 11% | 39.1 ± 2.5% |
| UUAUUCUACAUGUAAACCAAA | 31.3 ± 11% | 66.5 ± 3.4% | 53.3 ± 3% | 38 ± 7.9% |

| Sequence | cell viability [1] | cell viability [2] | cell viability [3] | cell viability [4] |
| --- | --- | --- | --- | --- |
| UUAUUGAACAUGUAAACCAAA | 57.3 ± 13% | 71.2 ± 6.2% | 69.1 ± 9.3% | 42.7 ± 6.3% |
| UUAUUGCACAUGUAAACCAAA | 42 ± 5.1% | 30 ± 3.9% | 36.4 ± 5.1% | 39.9 ± 3.9% |
| UUAUUGGACAUGUAAACCAAA | 61.9 ± 9.7% | 72.2 ± 4% | 66.3 ± 12% | 21.4 ± 1.4% |
| UUAUUGUACAUGUAAACCAAA | 58.7 ± 7.2% | 69.2 ± 6.1% | 73.6 ± 6.1% | 50.6 ± 4.7% |
| UUAUUUAACAUGUAAACCAAA | 111 ± 7% | 97.1 ± 1.4% | 68.1 ± 4.9% | 95.2 ± 3.6% |
| UUAUUUCACAUGUAAACCAAA | 23.6 ± 5.5% | 56.3 ± 2.2% | 63.1 ± 8.7% | 19.5 ± 4.1% |
| UUAUUUGACAUGUAAACCAAA | 110 ± 11% | 94.7 ± 2.9% | 76.6 ± 5.5% | 98.6 ± 7.5% |
| UUAUUUUACAUGUAAACCAAA | 74.2 ± 7.5% | 59.7 ± 2.6% | 64.4 ± 9.9% | 56.7 ± 3.2% |
| UUCAAAAACAUGUAAACCAAA | 93.9 ± 12% | 100 ± 14% | 81.3 ± 8.8% | 110 ± 19% |
| UUCAAACACAUGUAAACCAAA | 104 ± 12% | 53.8 ± 8.2% | 50.9 ± 6.9% | 77 ± 8.3% |
| UUCAAAGACAUGUAAACCAAA | 101 ± 7.8% | 96.8 ± 9.6% | 60.9 ± 2.5% | 101 ± 10% |
| UUCAAAUACAUGUAAACCAAA | 84.1 ± 14% | 77.7 ± 13% | 64.3 ± 3.2% | 95.8 ± 15% |
| UUCAACAACAUGUAAACCAAA | 64.8 ± 13% | 75.7 ± 15% | 73 ± 14% | 60.6 ± 6.8% |
| UUCAACCACAUGUAAACCAAA | 5.48 ± 1.9% | 18.6 ± 3.3% | 22.5 ± 1.8% | 12.9 ± 4.8% |
| UUCAACGACAUGUAAACCAAA | 84.3 ± 13% | 83.4 ± 9.8% | 69 ± 8.3% | 95.5 ± 20% |
| UUCAACUACAUGUAAACCAAA | 21.9 ± 9.2% | 39.6 ± 5.8% | 70.9 ± 10% | 20.8 ± 3.6% |
| UUCAAGAACAUGUAAACCAAA | 35.5 ± 2% | 84.6 ± 10% | 65.5 ± 2.5% | 76.7 ± 19% |
| UUCAAGCACAUGUAAACCAAA | 8.84 ± 1.6% | 60.8 ± 6.9% | 65.3 ± 5.8% | 34.3 ± 3.9% |
| UUCAAGGACAUGUAAACCAAA | 26.2 ± 1.6% | 65.6 ± 4.3% | 50.1 ± 3.1% | 42.8 ± 4.7% |
| UUCAAGUACAUGUAAACCAAA | 40.9 ± 2.9% | 66.2 ± 3.7% | 59.8 ± 3.7% | 45.8 ± 4.9% |
